This is an account of results in patent US20050256058.

The data set has as its system T1, Cbz-Ala-Ala-AAsn-CH═CH-CON(CH3)-2-Napth.
T1 sequence: AAN

Gingipain K displayed a kobs/[I] of 6 M⁻¹ s⁻¹.
With Cathepsin B the entry was “NI”.
